# Measurements taken from the supplement of paper PMC3334620.
# In all, about 33,000 sequences were measured (“E-score (-0.5 to 0.5)”: median about -0.016, highest 2% from about 0.32 on). This is one part of the list.
# Biological target: T1, Stp1 (UniProt B3LFK1)
# T1 sequence: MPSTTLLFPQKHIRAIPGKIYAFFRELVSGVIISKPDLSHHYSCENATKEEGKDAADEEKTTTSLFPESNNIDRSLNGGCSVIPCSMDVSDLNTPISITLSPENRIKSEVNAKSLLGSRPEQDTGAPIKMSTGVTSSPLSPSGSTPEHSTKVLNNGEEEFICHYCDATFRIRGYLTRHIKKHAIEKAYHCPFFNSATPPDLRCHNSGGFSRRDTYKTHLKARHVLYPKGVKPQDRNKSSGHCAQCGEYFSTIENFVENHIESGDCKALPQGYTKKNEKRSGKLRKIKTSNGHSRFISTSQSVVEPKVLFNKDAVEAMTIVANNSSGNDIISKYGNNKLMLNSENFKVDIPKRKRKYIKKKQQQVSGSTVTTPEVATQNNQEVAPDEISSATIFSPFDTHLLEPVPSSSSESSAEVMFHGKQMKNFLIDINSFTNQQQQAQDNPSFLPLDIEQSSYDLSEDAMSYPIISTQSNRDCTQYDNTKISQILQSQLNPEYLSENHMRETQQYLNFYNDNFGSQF
# Experiment: PBM E-score (8-mer binding enrichment) (E-score (-0.5 to 0.5)); higher = stronger / more preferred TF binding; most listed sequences are background and not binding sites
# Conditions: protein concentration: 200 nM; construct: GST-full length
# Summary of the method: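 Full-length yeast transcription factors or their DNA-binding domains, GST-tagged and expressed with PURExpress, were applied at about 100-200 nM to universal all-10-mer Agilent arrays. These arrays had been made double-stranded by primer extension on fresh or once-stripped slides. Detection used fluorescent anti-GST, normalisation used masliner, and E-scores for ungapped eight-base words pooled with reverse complements came from the Universal PBM Analysis Suite.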
row,Sequence,PBM E-score
1,GGAAAGAC,-0.139
2,ATAAAAGG,-0.0598
3,GAAATTTA,0.12
4,ACTATGAG,-0.0844
5,CGATTGAG,-0.0836
6,GAATTATA,0.0753
7,CTACTACA,0.211
8,ACACCCCA,-0.171
9,CAACAGTG,0.0314
10,TCTGTTCA,-0.0375
11,CTATAGGA,-0.0284
12,ATCCTCCA,-0.024
13,ACGACTAC,0.0203
14,GCTGTGAC,0.0353
15,ACCACGGC,0.327
16,CGTTCGAG,0.0335
17,CGACGACA,-0.0356
18,AGGAGTCA,-0.112
19,AATGTCGA,0.147
20,GGAAGAAC,-0.00337
21,AGTGTCGA,-0.0803
22,ATCTCGGA,0.0138
23,GACTTATA,-0.0235
24,GCATTGTA,0.0479
25,ACACTACG,0.0872

row,Sequence,PBM E-score
1,CAATTGTC,-0.0427
2,CCGCCTCG,0.298
3,AGGTTGTA,0.161
4,ACCCACGG,-0.0019
5,ACGTGGCA,0.152
6,AAATGCGA,0.0669
7,CGGGCTTC,-0.227
8,ACAGGAAC,-0.117
9,TTCATAAA,0.167
10,GGCGACGA,0.123
11,ACATTTTA,0.254
12,GCGTTCGA,0.133
13,CGGATGGC,0.14
14,CTAGATTC,-0.0891
15,ATCGAACA,-0.00011
16,CTAACTCA,-0.0903
17,ACCAAAGG,-0.131
18,CGTTTTAA,0.0794
19,GCGCGGAC,0.256
20,GTAATTTA,0.101
21,ACCTGAAT,0.0465
22,CCCTGGTC,-0.41
23,CCCAATGC,-0.216
24,AAAGTGAA,0.0274
25,ACGAATTA,0.144

row,Sequence,PBM E-score
1,AGACGGAA,0.106
2,TCCCTAAA,0.019
3,GAGTATAA,0.231
4,AACGGTTG,-0.12
5,CTACTCAC,0.074
6,ATTCGGGC,-0.103
7,ACTCCACA,-0.0355
8,AACCCGAC,-0.188
9,CAATCTCC,-0.186
10,CCTGGTGA,-0.157
11,AAGTGACT,-0.0651
12,CGAAGCGA,-0.0584
13,AAACTCAA,0.0822
14,ATGTTTCC,0.00054
15,AGAGGGAC,-0.151
16,CGTGGGTC,-0.153
17,ACAGCAGT,-0.0354
18,CGGGCGGC,0.31
19,GCCAGAGC,-0.271
20,CCCGCCAA,-0.197
21,AGCCCAAA,0.0273
22,GGCGCAAA,0.406
23,ACAAGTTA,0.0617
24,ACGTCTGC,0.0175
25,AAAAGACG,0.0808

row,Sequence,PBM E-score
1,AGGACGCG,-0.0834
2,CACGACCG,-0.0682
3,AGCTCGCG,0.0554
4,ACGCCGAG,0.0836
5,GAGTCGGA,-0.152
6,GGTGCAAC,-0.234
7,ATTGTTAC,0.134
8,AGAGCCGG,-0.0632
9,CGGTTCGA,0.0995
10,TAAGGAAA,0.175
11,ATTATCTC,0.0957
12,AGCTTATG,0.0648
13,CAGTAGAG,-0.155
14,CTGGCAAG,-0.0767
15,GAATTCTC,0.0702
16,AGAGCCCA,0.00925
17,GATCCACC,-0.21
18,AACGTGGT,-0.102
19,ATACTGGC,-0.284
20,AGTTGTGC,-0.012
21,CCATCGGG,-0.196
22,AGGTGCAG,-0.144
23,CCGATTCC,-0.0347
24,GGCTGGTA,-0.184
25,CCAGTATA,-0.0421

row,Sequence,PBM E-score
1,ATCCATAG,-0.218
2,CCTTAAAA,-0.0621
3,AGTCTATG,-0.175
4,TATGACGA,0.0504
5,CTGCGGTC,-0.0629
6,ATCAAGCA,-0.0533
7,GAAAGCCC,-0.0238
8,ATGAAGAA,0.165
9,GCTCATAC,0.0921
10,TGAGTACA,0.119
11,ATAAGCAA,-0.0611
12,GAACCATA,0.023
13,CCTTGAAA,0.064
14,ATGCGGTG,-0.103
15,AAGGCACT,0.323
16,TGAGACAA,-0.0493
17,CTCATTAA,0.026
18,TCATTGGA,0.0619
19,CCATTGCG,-0.0132
20,CCCTATGA,-0.0215
21,GTGCGAGA,0.0119
22,CGGTCGAG,-0.133
23,CTCTCTCC,-0.242
24,CTCAGTTA,0.0571
25,CCGGTAGC,-0.306

row,Sequence,PBM E-score
1,AATTAGTA,0.209
2,AGTCTCTA,-0.289
3,CGAAGAAC,0.0715
4,GCAGGAAA,0.00509
5,TGATGAAA,0.0834
6,GAGGACGA,0.0252
7,ACACCTCG,0.0334
8,ATTGCACG,0.184
9,CTCCCTGC,-0.293
10,ATAGTATA,0.0334
11,AATCGTAC,0.12
12,AATAGGAC,-0.208
13,GCTTTATA,-0.00101
14,GACCGACA,-0.0307
15,GCAATAAC,0.0245
16,CATGTACG,0.16
17,ACTCAATA,0.0947
18,GAATCGAA,0.11
19,AAAATGGA,0.17
20,CAGTCAGC,-0.0941
21,CTTCAAAA,0.0759
22,AGCGTCTA,-0.244
23,GTCCGTCA,-0.0524
24,ACACCGAA,0.0644
25,AGAAACCT,-0.144

row,Sequence,PBM E-score
1,ACGTGACA,-0.0187
2,ACTGGACA,-0.219
3,ACTACTCT,0.00993
4,GACCGAGC,-0.228
5,GCATGGAA,0.115
6,AATGTATA,0.0893
7,CAGCGTTC,0.0494
8,GACCAGCC,-0.259
9,CTGCTGAA,-0.0177
10,AGGGGTCG,-0.314
11,CTGTCGTC,0.0462
12,ATGAAACA,0.00811
13,AGCAGCAC,-0.00705
14,TACAACTA,0.145
15,GGATGACC,-0.226
16,CCGTGCAA,0.325
17,AGAGTAAG,0.0488
18,AGTGTCAC,-0.0482
19,AACACTAT,0.185
20,TCAAGTCA,-0.0911
21,AAAGGCGC,0.402
22,CTCGCACC,-0.204
